The campaign covered roughly 410,000 compounds. About 6,400 (1.6%) were called active. Inconclusive results, whose numbers are uncertain, are shown with a selection of clear calls. Calls come from the whole dose curve; as a rule, active = well fitted inhibition curve with a large enough effect; inconclusive = small, poorly fitted or top-dose-only effect; inactive = no such curve, though single readings can be large or run the other way. No potency is given beside an inconclusive call; the fits are too rough.
target: Glucagon-like peptide 1 receptor (Homo sapiens) (UniProt P43220); test: qHTS of GLP-1 Receptor Inverse Agonists (Inhibition Mode); conditions: HEK293 GLP-1R CRE-luciferase, luminescence, 24 h, GLP-1R form is constitutively active; activity change, negative = inhibition: at 38.3 µM (top of the series) unless noted; note: nearly all actives have a fitted effect of over 55% in size
How it was run: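 Using stably transfected HEK293 (constitutively active GLP-1R, cAMP-luciferase reporter), compounds were incubated 24 hr and luciferase measured by luminescence.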
% is set by controls: 0 for no effect and ±100 for the full control effect; potency is the fitted concentration of half-maximal effect; tags give direction and shape of the fitted curve.

Sequence of UniProt P43220 (P43220 whole entry, looked up): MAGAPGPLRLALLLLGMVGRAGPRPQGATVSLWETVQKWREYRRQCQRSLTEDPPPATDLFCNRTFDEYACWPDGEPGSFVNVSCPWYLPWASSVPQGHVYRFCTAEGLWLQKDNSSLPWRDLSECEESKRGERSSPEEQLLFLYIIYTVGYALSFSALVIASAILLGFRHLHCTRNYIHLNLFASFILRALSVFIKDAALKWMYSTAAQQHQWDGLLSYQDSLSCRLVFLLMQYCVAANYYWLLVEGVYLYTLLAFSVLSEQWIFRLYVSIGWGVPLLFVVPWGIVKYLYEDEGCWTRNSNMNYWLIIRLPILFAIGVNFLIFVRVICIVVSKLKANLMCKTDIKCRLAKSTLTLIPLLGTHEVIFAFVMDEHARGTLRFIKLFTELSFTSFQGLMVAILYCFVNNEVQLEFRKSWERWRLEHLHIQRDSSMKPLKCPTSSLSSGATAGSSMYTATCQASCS

Row | Structure (SMILES) | Potency | activity change, negative = inhibition
1 | COCC1CCN(C(=O)c2cc(COc3cccc4cnccc34)on2)CC1 | inactive | –
2 | CCSc1nc2ccccc2c(OCc2ccccc2Cl)c1C(=O)OC | inconclusive [inhibitor, partial curve] | –
3 | Cc1oc(-c2ccccc2Cl)nc1CSCC(=O)NC1CCCC1 | inconclusive [inhibitor, partial curve, poor fit] | –
4 | O=S1(=O)c2ccc(Br)cc2N2CCC[C@H]2CN1Cc1ccccc1 | active: 3.98 µM | –
5 | COc1ccc(NC(=O)c2nc(-c3ccc(C)cc3)n3c2CCCCC3)cc1 | inconclusive [inhibitor, partial curve, poor fit] | –
6 | COc1cccc(C(=O)N(Cc2nc(-c3ccc(Cl)cc3)no2)C(C)C)c1OC | inconclusive [inhibitor, single point] | –
7 | CN1Cc2c(N3CCOCC3)nc3sc(C(=O)c4ccccc4)c(N)c3c2CC1(C)C | inconclusive [inhibitor, partial curve, poor fit] | –
8 | COc1cc(/C=C2\NC(=S)N(C)C2=O)ccc1O | inactive | –
9 | OCCN(Cc1ccccc1)Cc1ccc(Cl)cc1 | inconclusive [inhibitor, single point] | –
10 | O=C(NCc1cccnc1)C(=O)Nc1nc(C23CC4CC(CC(C4)C2)C3)cs1 | inconclusive [inhibitor, partial curve, poor fit] | –
11 | CCOC(=O)c1ccccc1OC(=O)Oc1ccccc1C(=O)OCC | inconclusive [inhibitor, partial curve, poor fit] | –
12 | CCC(C)Cn1cnc2c(SCc3ccccc3F)nc(N)nc21 (stereo not drawn) | inconclusive [inhibitor, partial curve, poor fit] | –
13 | O=C(CCS(=O)(=O)c1ccccc1)N(CCCN1CCOCC1)c1nc2c(F)cccc2s1 | inconclusive [inhibitor, single point] | –
14 | CCc1ccc(NC(=S)N(Cc2cccc(Br)c2)CC2CCC(C(=O)O)CC2)cc1 (stereo not drawn) | inconclusive [inhibitor, single point] | –
15 | CC(=Nc1ccc(C)cc1C)c1sc2ccccc2c1O | inconclusive [inhibitor, partial curve, poor fit] | –
16 | COc1ccc(OC)c(NC(=O)COc2ccc3c(c2)CCC3)c1 | inconclusive [inhibitor, single point] | –
17 | O=C(c1ccccc1)N1N=C(c2ccc(F)cc2)CC1(O)C(F)(F)F (stereo not drawn) | inconclusive [inhibitor, partial curve, poor fit] | –
18 | O=C(c1ccc(N2CCN(C(=O)c3cccc(F)c3)CC2)cc1)c1cccc(F)c1 | inconclusive [inhibitor, single point] | –
19 | Cc1oc2cc3oc(=O)c(CCC(=O)NC4CC4)c(C)c3cc2c1C | inactive | –
20 | COc1ccc(C(=O)C(=O)c2ccc(OCCO)cc2)cc1 | inactive | –
21 | COc1ccc(C2=Nc3ccccc3NC(=O)C2N(Cc2ccc(F)cc2)C(=O)c2ccco2)cc1 (stereo not drawn) | inconclusive [inhibitor, single point] | –

Row | Structure (SMILES) | Potency | activity change, negative = inhibition
22 | O=C1c2[nH]nc(-c3ccc(F)cc3)c2C(c2ccccc2F)N1c1ccccc1 (stereo not drawn) | inconclusive [inhibitor, single point] | –
23 | CCOC(=O)N1CCN(c2c(Nc3cc(C)[nH]n3)c(=O)c2=O)CC1 | inactive | –
24 | COc1ccc(Br)c(Cn2c(C)c(C(=O)NCc3ccccc3C(F)(F)F)sc2=O)c1 | inconclusive [inhibitor, partial curve, poor fit] | –
25 | COc1cc(S(=O)(=O)NC2CCCCC2C)ccc1Cl (stereo not drawn) | inconclusive [inhibitor, single point] | –
26 | COc1ccc(CSC2=NCCN2)cc1Cl | inconclusive [inhibitor, single point] | –
27 | Fc1ccc(CNc2ccn3nc(-c4ccccc4)cc3n2)cc1 | inconclusive [inhibitor, single point] | –
28 | Cc1cc(C(=O)N2CCN(S(=O)(=O)c3ccc(F)c(Cl)c3)CC2)c(C)o1 | inconclusive [inhibitor, single point] | –
29 | O=c1c2[nH]c3ccccc3c2nc2n1CCS2 | inactive | –
30 | COCc1ccc(C(=O)NC2CCCc3c2cnn3-c2ccc(C)c(C)c2)o1 (stereo not drawn) | inconclusive [inhibitor, full curve, poor fit] | –
31 | CC(C)c1ccc(N(CC(=O)O)S(=O)(=O)c2ccc3[nH]c(=O)c(=O)[nH]c3c2)cc1 | inactive | –
32 | CCN(c1ccc(OC)cc1)S(=O)(=O)c1ccc(-c2cc(C)no2)s1 | active: 7.94 µM | –
33 | O=C(Nc1ccc([N+](=O)[O-])cc1)Nc1ccc(Cl)cc1F | inconclusive [inhibitor, full curve] | –
34 | CSc1nc(O)c(N=Nc2ccc(F)cc2F)c(=O)[nH]1 | inconclusive [inhibitor, single point] | –
35 | COc1cccc(CNc2ccc(F)c(Cl)c2)c1 | inconclusive [inhibitor, single point] | –
36 | CCOC(=O)C1CCN(C(=O)c2c(C)oc3c2C(=O)c2ccccc2C3=O)CC1 | inconclusive [inhibitor, partial curve, poor fit] | –
37 | O=C(NCC1CCN(Cc2ccccc2F)CC1)Nc1ccc(F)c(Cl)c1 | inconclusive [inhibitor, single point] | –
38 | COCCn1c(C)cc(C(=O)COC(=O)c2cccnc2SC)c1C | inconclusive [inhibitor, partial curve, poor fit] | –
39 | CCC(=O)Oc1ccc(C(=O)Nc2ccc3c(c2)C(=O)N(C2CCCCC2)C3=O)cc1 | inconclusive [inhibitor, full curve, poor fit] | –
40 | O=C(c1ccccc1)N1CCSc2sccc2C1=O | inconclusive [inhibitor, full curve, poor fit] | –
41 | O=C(Nc1nnc(Cc2c[nH]c3ccccc23)s1)c1ccc(Cl)cc1Cl | inconclusive [inhibitor, partial curve] | –
42 | Cc1ccccc1CN1C[C@@H]2C[C@@H](c3cn[nH]c3-c3ccccc3)N3CCC[C@@]23C1=O | inconclusive [inhibitor, single point] | –

Row | Structure (SMILES) | Potency | activity change, negative = inhibition
43 | Cc1cccc(C)c1NC(=O)CN(C)C(=O)c1ccc(COc2ccccc2)cc1 | – | inconclusive: -32.6% [inhibitor]
44 | CN(c1ccc(C(=O)N2CCN(Cc3ccccc3)CC2)cc1)S(=O)(=O)c1ccccc1 | inconclusive [inhibitor, partial curve, poor fit] | –
45 | Cc1ccc(-c2csc(NC(=O)c3ccco3)n2)cc1C | inconclusive [inhibitor, single point] | –
46 | Cc1nn2c(C)c(C(=O)NCCc3ccccc3)cnc2c1-c1ccccc1 | inconclusive [inhibitor, single point] | –
47 | Cc1cccc(C)c1NC(=O)C(c1ccc(C#N)cc1)n1c(=O)c(-c2ccco2)nc2ccccc21 (stereo not drawn) | inconclusive [inhibitor, single point] | –
48 | CC(NCC(=O)Nc1ccccc1C(=O)NC1CC1)c1cccc(Cl)c1 (stereo not drawn) | inconclusive [inhibitor, partial curve, poor fit] | –
49 | COc1ccc(CCNC(=S)NC(=O)c2ccccc2)cc1C | inconclusive [inhibitor, partial curve, poor fit] | –
50 | Cc1ccc2c(Cl)cc(Cl)c(OCC(=O)Nc3cccc(S(=O)(=O)N(C)C)c3)c2n1 | inactive | –
51 | CCCCc1ccc(NC(=S)NCc2cccc(OC)c2)cc1 | inconclusive [inhibitor, single point] | –
52 | CC(C)C[C@H](NC(=O)N1CC(=O)Nc2ccccc21)C(=O)N[C@@H](Cc1ccccc1)C(=O)O | inactive | –
53 | Cc1cc(C)n(-c2nc3ccccc3nc2N2CCN(C(=O)c3ccc(Cl)cc3)CC2)n1 | inconclusive [inhibitor, single point] | –
54 | N#C/C(=N\Nc1ccc(S(=O)(=O)N2CCCCCC2)cc1)C(N)=S | inconclusive [inhibitor, partial curve, poor fit] | –
55 | CCc1ccc(C(c2ccc(CC)cc2)C(Cl)Cl)cc1 | inconclusive [inhibitor, single point] | –
56 | CC(=O)NC1=C(C#N)C(c2ccccc2)c2c(ccc3ccccc23)O1 (stereo not drawn) | inconclusive [inhibitor, partial curve, poor fit] | –
57 | CCOc1ccc(NC(=S)NC(=O)/C=C/c2ccco2)cc1 | inconclusive [inhibitor, single point] | –
58 | O=C(CNC(=O)c1ccccc1F)c1ccccc1 | inconclusive [inhibitor, single point] | –
59 | CCCNC(=O)C(=O)NCC(c1ccc2c(c1)OCO2)N1CCN(c2ccc(F)cc2)CC1 (stereo not drawn) | inconclusive [inhibitor, single point] | –
60 | COc1ccc(CN2C(=O)C(CC(C)C)Nc3ncnc(N4CCCCC4)c32)cc1 (stereo not drawn) | inconclusive [inhibitor, single point] | –
61 | COC(=O)c1ccc(/C=C/C(=O)c2ccc(OC)c(OC)c2)cc1 | inconclusive [inhibitor, single point] | –
62 | COCCCNC(=O)c1cnc2sc(N3CCCCC3)nn2c1=O | inactive | –
63 | CNC(=O)c1c(NC(=O)/C=C/c2ccccc2)sc2c1CCC2 | inconclusive [inhibitor, single point] | –
